The campaign covered roughly 310,000 compounds. About 14,000 (4.5%) showed an effect of 50% or more. The effect is printed as a negative number. This is one part of the list.
The compounds below were run against human ether-à-go-go-related gene (hERG) potassium channel (human, UniProt Q12809) (assay: primary screen, population patch clamp on CHO cells stably expressing hERG).
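Note: peak tail current of the secondary pulse compared with the same well before compound.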

human ether-à-go-go-related gene (hERG) potassium channel, sequence (Q12809 whole entry, looked up): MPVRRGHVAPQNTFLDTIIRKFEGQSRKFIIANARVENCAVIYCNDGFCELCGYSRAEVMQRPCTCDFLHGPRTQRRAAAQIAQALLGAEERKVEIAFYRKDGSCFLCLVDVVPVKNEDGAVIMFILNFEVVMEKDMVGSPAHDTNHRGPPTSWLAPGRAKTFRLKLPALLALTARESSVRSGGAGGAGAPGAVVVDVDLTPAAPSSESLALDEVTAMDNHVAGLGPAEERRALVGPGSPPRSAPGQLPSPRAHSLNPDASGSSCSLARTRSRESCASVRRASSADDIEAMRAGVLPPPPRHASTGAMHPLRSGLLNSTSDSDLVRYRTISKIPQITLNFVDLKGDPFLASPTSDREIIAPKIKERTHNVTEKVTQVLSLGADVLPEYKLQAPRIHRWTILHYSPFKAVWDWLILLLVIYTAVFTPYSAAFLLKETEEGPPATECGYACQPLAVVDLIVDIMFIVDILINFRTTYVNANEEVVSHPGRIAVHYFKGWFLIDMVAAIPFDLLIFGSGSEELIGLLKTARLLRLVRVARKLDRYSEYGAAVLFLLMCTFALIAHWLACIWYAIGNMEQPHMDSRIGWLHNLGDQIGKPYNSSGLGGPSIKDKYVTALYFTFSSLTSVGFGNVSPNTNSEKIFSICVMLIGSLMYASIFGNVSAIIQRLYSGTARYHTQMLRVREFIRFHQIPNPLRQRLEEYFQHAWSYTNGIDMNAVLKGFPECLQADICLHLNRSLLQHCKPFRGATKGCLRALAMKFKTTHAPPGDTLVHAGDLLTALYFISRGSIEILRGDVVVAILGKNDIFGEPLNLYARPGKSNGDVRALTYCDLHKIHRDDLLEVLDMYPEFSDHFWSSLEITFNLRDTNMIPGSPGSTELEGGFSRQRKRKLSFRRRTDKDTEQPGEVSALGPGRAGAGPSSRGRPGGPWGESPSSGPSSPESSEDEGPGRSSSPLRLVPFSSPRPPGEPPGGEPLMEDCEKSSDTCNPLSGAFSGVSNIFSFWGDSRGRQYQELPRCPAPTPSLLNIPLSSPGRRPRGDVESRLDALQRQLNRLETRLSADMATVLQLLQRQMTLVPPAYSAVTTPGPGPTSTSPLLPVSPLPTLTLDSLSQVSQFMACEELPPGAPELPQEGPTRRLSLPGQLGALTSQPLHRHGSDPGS

SMILES	hERG current change (%, negative = inhibition) at 10uM [%]
Cc1cc(C)nc(SCc2nnc(SCC(=O)O)n2-c2ccccc2)n1	-27.1
CCC/C=C(\CCC)C(NC(=O)Cc1ccccc1)c1ccc(C(=O)OC)cc1 (stereo not shown)	-24.5
Cl.Fc1ccccc1C(c1nnnn1Cc1ccc2c(c1)OCO2)N1CCN(Cc2ccco2)CC1 (stereo not shown)	-56.4
CCSC1=N/C(=C\c2ccc(-c3ccccc3[N+](=O)[O-])o2)C(=O)S1	8.71
Cc1cc(SCc2ccccc2)nc(=O)[nH]1	19.5
COCCN(C)Cc1nc(C(c2ccccc2)c2ccccc2)no1	3.28
Cc1ccc(-n2c(-c3ccco3)nc3c(cnn3-c3ccccc3C)c2=O)cc1	15
CN(C(=O)C1CCN(S(=O)(=O)c2cccc3nonc23)CC1)C1CCCCC1	-12.2
CCOC(=O)N1CCN(CC(=O)Nc2nnc(C(F)(F)F)s2)CC1	27.4
COc1ccc(CN(C(=O)CSc2nnc(-c3c[nH]c4ccccc34)o2)c2ccc(F)cc2)cc1OC	-2.01
CCCCCCOC(=O)C(C#N)c1nc2ccccc2nc1N1CCN(CC)CC1 (stereo not shown)	-70.2
C(=N\n1cnc2ccccc21)/c1cccnc1	-11.5
CCN(CC)S(=O)(=O)c1ccc(N2CCCCC2)c(NC(=O)/C(C#N)=C/c2ccc(OC)cc2)c1	8.78
O=C(O)CC(Cc1ccc(Cl)cc1)C(=O)NCC12CC3CC(CC(C3)C1)C2 (stereo not shown)	16
NC(=O)C1CCN(c2nc(C3CC3)nc3c2nnn3Cc2ccccc2Cl)CC1	-3.71
Cc1cnc2cc([N+](=O)[O-])ccc2n1	5.75
CCN1CC(CN(C)Cc2cn(-c3cccc(C)c3)nc2-c2cccc(F)c2)CC1=O (stereo not shown)	-31.7
C[C@@H]1CN(Cc2nc(Cc3ccccc3F)no2)C[C@H](C)O1	13.2
Cc1cccc(NC2SC(=O)N(c3ccccc3)C2=O)c1 (stereo not shown)	-1.23
FC(F)(F)c1ccc(N2CCN(c3ncnc4c3nnn4Cc3ccccc3)CC2)nc1	-2.11
O=C(Nc1cccc(Cl)c1)c1nc[nH]c1C(=O)NCc1ccccc1	3.12
CC(C)Oc1cccc(C(=O)Nc2ccc(Br)cc2F)c1	7.79

SMILES	hERG current change (%, negative = inhibition) at 10uM [%]
O=C(O)CCc1ccc(NCc2cccc(Oc3ccccc3)c2)cc1	5.22
COc1ccc2c(c1)[nH]c1c(=O)n(/N=C/c3ccc(OC)c(COc4ccccn4)c3)cnc12	-9.63
CCN(CC(=O)Nc1cccc(S(=O)(=O)N2CCCCC2)c1)Cc1ccccc1	-25.4
CCn1cc(C(=O)N2CCN(c3ccc(F)cc3)CC2)c2cc(OC)c(OC)cc2c1=O	-69.5
Cc1ccc(C)c(NC(=O)COC(=O)CCCN=C2NS(=O)(=O)c3ccccc32)c1	4.55
CCN(CC)c1ccc(C2=NNC(=O)CC2C)cc1[N+](=O)[O-] (stereo not shown)	1.32
Cc1ccc(S(=O)(=O)NCCN=Cc2ccc(N(C)C)cc2)cc1	23.4
CC(C)OC(=O)c1cc2ccccc2[nH]1	-8.17
O=C(Nc1nncs1)C1CC(=O)N(CCc2ccc(F)cc2)C1 (stereo not shown)	27.1
COC(=O)C1=C(c2ccc(Cl)c(C(F)(F)F)c2)C[C@@H]2CC[C@H]1N2C(=O)N1CCC(C)CC1	10.1
Cc1ccc(N(CC2CO2)S(=O)(=O)c2ccccc2[N+](=O)[O-])cc1 (stereo not shown)	1.23
Cc1ccccc1CN1C2=NCCCN2c2ccccc21.Cl	-68
Cc1ccc(C(C)C)c(OCCn2c(=O)oc3ccccc32)c1	15.2
CC(C)CCC(C)NC(=O)C1CCN(S(=O)(=O)/C=C/c2ccccc2)CC1 (stereo not shown)	20.7
Cc1cccc(C)c1NC(=O)CSc1nc2ccccc2c(=O)[nH]1	3.46
COc1ccccc1Oc1ccccc1C(=O)O	0.941
O=C(NCC1CCCO1)c1cn(-c2ccccc2)nc1-c1ccccc1 (stereo not shown)	0.326
Cc1ccc(C)c(S(=O)(=O)NCC(=O)Nc2ccc3c(c2)OCO3)c1	3.55
CCC(C)Nc1c([N+](=O)[O-])cc(C)cc1[N+](=O)[O-] (stereo not shown)	11
CCN1C(=O)C(CC(=O)Nc2ccc(OC)cc2)N(CCN2CCOCC2)C1=S (stereo not shown)	-4.13
COc1ccc(NC(=O)CN(C)CC(=O)NC2CCCCC2C)cc1 (stereo not shown)	9.72

— PMC4336329 (PLoS ONE, 2015)
